PubChem BioAssay AID232 (DTP/NCI, 2004)
Inconclusive results and toxic doses are left out. Certain results were filed several times, with different values. The other results are left out here. The source may hold further records. Results that share an entry repeat one measurement across runs, samples, wells, individuals or studies. Numbered stars: 1 amine (or outer) side, 2 acyl side, 3 side chain; on linkers, the order of the positions; unused ones are H or OH. Bridge positions count the residues as written; N and C are the ends. Square brackets hold non-standard residues; d marks the D form. Peptide text beside a SMILES is read from it. I, II: the chains in the order shown. Actinocin(9to1) = Cc1c2oc3c(C)ccc(C(=O)[*:1])c3nc-2c(C(=O)[*:2])c(N)c1=O; aThr = C[C@H](O)[C@H](N)C(=O)O; NMeV = CN[C@H](C(=O)O)C(C)C; Sar = CNCC(=O)O

Test system: Gardner 6C3HED lymphosarcoma ip, C3AKF1 mice, survival T/C
Assay: NCI In Vivo Anticancer Drug Screen. Data for tumor model Lymphosarcoma Gardner 6C3HED (intraperitoneal) in C3AKF1 (CHKRF1) mice
Conditions: endpoint: survival time, mean or median, schedule: Q01DX010 (ip), higher = longer survival
Method: The antitumor activity of compounds was measured in mice bearing transplantable tumors. Survival or tumor size were measured and the results are expressed as the measurement made in the treated group (T) divided by the measurement made in the vehicle treated control group (C). The tumor model used in this assay is Lymphosarcoma Gardner 6C3HED (intraperitoneal) in C3AKF1 (CHKRF1) mice

## Oc1cc(CN(CCCl)CCCl)c(O)cc1CN(CCCl)CCCl
dose: 1.25 mg/kg/injection, vehicle: saline
  T/C: 108 % of control and 150 % of control

## Cc1c2oc3c(C)ccc(C(=O)N[C@@H]4C(=O)N[C@H](C(C)C)C(=O)N5CCC[C@H]5C(=O)N(C)CC(=O)N(C)[C@@H](C(C)C)C(=O)O[C@H]4C)c3nc-2c(C(=O)N[C@@H]2C(=O)N[C@H](C(C)C)C(=O)N3CCC[C@H]3C(=O)N(C)CC(=O)N(C)[C@@H](C(C)C)C(=O)O[C@H]2C)c(N)c1=O (I: [aThr][dV]P[Sar][NMeV] / II: [aThr][dV]P[Sar][NMeV]; ester I:1-I:C, II:1-II:C; linker I:N-II:N via Actinocin(9to1))
dose: 0.05 mg/kg/injection, vehicle: acid diluted with saline
  T/C: 120 % of control and 175 % of control
dose: 0.1 mg/kg/injection, vehicle: acid diluted with saline
  T/C: 110 % of control and 185 % of control

## NC(Cc1ccc(N(CCCl)CCCl)cc1)C(=O)O (stereo unspecified)
dose: 2.0 mg/kg/injection, vehicle: saline
  T/C: 120 % of control and 150 % of control

## CCN(CC)CCNc1ccc(C)c2sc3ccccc3c(=O)c12
dose: 100.0 mg/kg/injection, vehicle: saline
  T/C: 108 % of control, 123 % of control, 157 % of control

## N=[N+]=CC(=O)OCC(N)C(=O)O (stereo unspecified)
dose: 12.5 mg/kg/injection, vehicle: saline
  T/C: 115 % of control and 155 % of control
